These results are taken from the supplement of paper PMC4604168 (melanoma cell lines).

Structures are written as SMILES. This is one part of the list. Many values rest on one well or one pass, so single values are uncertain.

Among the test systems are MZ2-MEL; MeWo; RPMI7951; RVH-421; SkMel28; SkMel30; SkMel5; UACC257; UACC62; WM115; WM1716; WM1745; WM3526; WM3619; WM451Lu.
What all share (experiment): cell count relative to DMSO control; melanoma cells; higher = more viable cells
What all share (settings): library dose: low library concentration; 72 h
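Note: cell number obtained by counting DAPI-stained nuclei in high-throughput microscope images with image analysis software, screen run in 1,536-well plates.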

Turning to `C[C@@H]1CCN(C(=O)CC#N)C[C@@H]1N(C)c1ncnc2[nH]ccc12` + CCc1ccc(CCOc2ccc(CC3SC(=O)NC3=O)cc2)nc1 [pioglitazone] (first compound 1 µM, partner dose 2 µM), the cell count turned out to be 104% with MZ2-MEL; 105% in the assay with MeWo; 111% with RPMI7951; 112% with RVH-421; 88.2% with SkMel28; 104% in the assay with SkMel30. The cell count is 82.5% with SkMel5; 92.2% with UACC257; 92% in the assay on UACC62; 101% with WM115; 98.1% in the assay on WM1716; 94.1% in the assay on WM1745. Besides, the cell count in the assay on WM3526 turned out to be 95%; with WM3619 it was 116%; with WM451Lu, 127%.

Regarding `Cn1cncc1[C@@](N)(c1ccc(Cl)cc1)c1ccc2c(c1)c(-c1cccc(Cl)c1)cc(=O)n2C` [tipifarnib] + c1cc(-c2cnn3cc(-c4ccc(OCCN5CCCCC5)cc4)cnc23)ccn1 [Dorsomorphin] (first compound 0.01 µM, partner dose 0.4 µM), the cell count with MZ2-MEL was found to be 104%; in the assay on MeWo, 98.1%; in the assay with RPMI7951, 82.5%; in the assay on RVH-421, 107%; in the assay with SkMel28, 77.4%; with SkMel30, 101%. Moreover, the cell count worked out at 85.1% with SkMel5; 76.5% in the assay on UACC257; 86.3% in the assay on UACC62; 89.1% in the assay with WM115; 77.6% with WM1716; 91.1% in the assay on WM1745. In addition, the figures for the cell count in the assay on WM3526, in the assay on WM3619 and with WM451Lu were 90.7%, 93.7% and 102%, respectively.

As to `Cn1cncc1[C@@](N)(c1ccc(Cl)cc1)c1ccc2c(c1)c(-c1cccc(Cl)c1)cc(=O)n2C` [tipifarnib] + Oc1nc(-c2ccc(C(F)(F)F)cc2)nc2c1CSCC2 [XAV939] (first compound 0.01 µM, partner dose 2 µM), the cell count in the assay on MZ2-MEL was 97.9%; in the assay with MeWo it was 97.6%; in the assay on RPMI7951, 82.3%; in the assay with RVH-421, 89.4%; in the assay on SkMel28, 87%; in the assay on SkMel30, 107%. Besides, the cell count is 85.7% with SkMel5; 77.7% in the assay with UACC257; 82.4% in the assay on UACC62; 100% in the assay with WM115; 62.3% in the assay with WM1716; 80% in the assay on WM1745. For the same molecule, the cell count was 77.3% in the assay on WM3526, 79.8% in the assay on WM3619 and 108% with WM451Lu.

`O=C(O)c1ccc(-c2c[nH]c3ncc(-c4ccccc4)cc23)cc1C1CCCC1` + O=c1cc(-c2cccc3c2Sc2ccccc2S3)oc(N2CCOCC2)c1 [KU55933] (first compound 0.16 µM, partner dose 1 µM): the cell count with MZ2-MEL was found to be 95.4%; in the assay on MeWo, 99.1%; with RPMI7951, 93.5%; in the assay with RVH-421, 108%; in the assay with SkMel28, 91.4%; in the assay on SkMel30, 78.6%. Moreover, the cell count with SkMel5 was determined as 96.7%; in the assay with UACC257 it was 104%; in the assay on UACC62, 92%; in the assay with WM115 it was 106%; in the assay with WM1716 it was 104%; with WM1745, 96.3%. Moreover, the cell count in the assay on WM3526 amounted to 91.8%; in the assay with WM3619, 149%; in the assay with WM451Lu, 120%.

For `C[C@@H]1CCN(C(=O)CC#N)C[C@@H]1N(C)c1ncnc2[nH]ccc12` + N#Cc1c(O)c2c(-c3ccc(-c4ccccc4O)cc3)csc2[nH]c1=O [A769662] (first compound 1 µM, partner dose 2 µM), the cell count in the assay on MZ2-MEL stood at 107%; with MeWo it was 108%; with RPMI7951, 130%; with RVH-421 it was 88.1%; with SkMel28 it was 89.2%; in the assay with SkMel30, 103%. Moreover, the cell count came to 111% with SkMel5; 112% in the assay on UACC257; 98.5% in the assay with UACC62; 102% in the assay on WM115; 102% with WM1716; 92.3% in the assay with WM1745. The cell count in the assay on WM3526 is 106%; in the assay on WM3619, 109%; in the assay with WM451Lu it was 99.1%.

On to `CC1(C)NC(=O)N(c2ccc([N+](=O)[O-])c(C(F)(F)F)c2)C1=O` [nilutamide] + COc1ccc2c(c1)CCC1C2CCC2(C)C(NCCCCCCN3C(=O)C=CC3=O)CCC12 [U73122] (first compound 1 µM, partner dose 0.4 µM), for which the cell count in the assay with MZ2-MEL is 99%; with MeWo, 97.2%; with RPMI7951, 95.2%; in the assay with RVH-421 it was 96%; with SkMel28, 103%; with SkMel30, 95.4%. The cell count in the assay with SkMel5 was 89.7%; in the assay on UACC257, 103%; in the assay on UACC62, 102%; in the assay with WM115, 106%; with WM1716 it was 91.8%; in the assay with WM1745, 92.2%. Further, the cell count in the assay on WM3526 came out at 90.8%; with WM3619 it was 94%; with WM451Lu, 101%.

Turning to `O=C(O)c1ccc(-c2c[nH]c3ncc(-c4ccccc4)cc23)cc1C1CCCC1` + Oc1cc(-c2nc(-c3ccccc3)[nH]c2-c2ccncc2)ccc1Cl [L779450] (first compound 0.16 µM, partner dose 0.2 µM), the cell count in the assay on MZ2-MEL came out at 78.8%; in the assay with MeWo it was 100%; with RPMI7951 it was 94.7%; in the assay with RVH-421, 71.8%; with SkMel28 it was 60.4%; with SkMel30 it was 93%. Also, the cell count was determined as 91.8% in the assay on SkMel5; 84.6% in the assay on UACC257; 65.9% with UACC62; 75.5% with WM115; 107% in the assay with WM1716; 91.5% with WM1745. The results for the cell count in the assay on WM3526, in the assay on WM3619 and in the assay with WM451Lu were 63.5%, 107% and 103%, respectively.

In the case of `O=C(Nc1cccc(Cl)c1)Nc1ncc(CCNc2ncnc3ccsc23)s1` + CCc1ccc(CCOc2ccc(CC3SC(=O)NC3=O)cc2)nc1 [pioglitazone] (first compound 0.0008 µM, partner dose 2 µM), the cell count turned out to be 99.7% in the assay on MZ2-MEL; 89% in the assay on MeWo; 73.9% in the assay with RPMI7951; 87.3% in the assay with RVH-421; 91.4% with SkMel28; 115% in the assay with SkMel30. Also, the cell count with SkMel5 came out at 114%; in the assay on UACC257 it was 91.4%; in the assay with UACC62, 92.3%; in the assay on WM115 it was 69.8%; in the assay on WM1716 it was 93.6%; in the assay with WM1745, 91.1%. In addition, the cell count in the assay on WM3526 was determined as 101%; with WM3619 it was 114%; in the assay with WM451Lu, 91.6%.

`C[C@@H]1CCN(C(=O)CC#N)C[C@@H]1N(C)c1ncnc2[nH]ccc12` + O=c1cc(-c2cccc3c2Sc2ccccc2S3)oc(N2CCOCC2)c1 [KU55933] (first compound 1 µM, partner dose 1 µM): the cell count in the assay with MZ2-MEL worked out at 97.3%; with MeWo it was 102%; with RPMI7951 it was 106%; in the assay on RVH-421 it was 118%; with SkMel28 it was 98.8%; with SkMel30, 88.1%. Also, the cell count came out at 104% with SkMel5; 98.6% in the assay with UACC257; 95% in the assay with UACC62; 93.5% in the assay with WM115; 95% in the assay with WM1716; 105% in the assay with WM1745. The cell count in the assay on WM3526 is 77.4%; in the assay with WM3619 it was 90.6%; in the assay on WM451Lu, 88.7%.
